US9988430B2, “Stable GLP-1 based GLP-1/glucagon receptor co-agonists” (Novo Nordisk A/S, priority 2014, dated 2018)
For at least one compound, name, drawing or mass did not settle the structure. *1 amine or outer side, *2 acyl side, *3 side chain or, on linkers, in order; H or OH if unused. Where a SMILES comes first, the peptide text is derived from it. Bridges are numbered along the chain shown (N, C = ends). Roman numbers before positions name the chains, in order. Side-chain parts run from the residue outwards. [ ]: non-standard residue; d: D form. The star is where a group is joined. C18 diacid = O=C(O)CCCCCCCCCCCCCCCCC(=O)*; γGlu = O=C(O)[C@H](CCC(=O)[*:2])N[*:1]; Desaminohistidyl = O=C(CCc1c[nH]cn1)*; Ac4c = NC1(C(=O)O)CCC1; AEEA = NCCOCCOCC(=O)O; Aib = CC(C)(N)C(=O)O

test: Assay (III): ThT fibrillation assay for physical stability; type: physicochemical; conditions: pH 7.5, 10 mM HEPES buffer, 37° C., shaking 960 rpm

Row | Structure (SMILES) | ThT assay pH 7.5: Lag time
1 | CC[C@H](C)[C@H](NC(=O)[C@H](Cc1ccccc1)NC(=O)[C@H](CCC(=O)O)NC(=O)[C@H](CCCNC(=N)N)NC(=O)[C@H](C)NC(=O)[C@H](C)NC(=O)[C@H](CCCNC(=N)N)NC(=O)CNC(=O)[C@H](CCC(=O)O)NC(=O)[C@H](CC(C)C)NC(=O)[C@H](Cc1ccc(O)cc1)NC(=O)[C@H](CCCNC(=N)N)NC(=O)[C@H](CO)NC(=O)[C@@H](NC(=O)[C@H](CC(=O)O)NC(=O)[C@H](CO)NC(=O)[C@@H](NC(=O)[C@H](Cc1ccccc1)NC(=O)[C@@H](NC(=O)CNC(=O)[C@H](Cc1c[nH]cn1)NC(=O)C(C)(C)NC(=O)CCc1c[nH]cn1)[C@@H](C)O)[C@@H](C)O)C(C)C)C(=O)N[C@@H](C)C(=O)N[C@@H](Cc1c[nH]c2ccccc12)C(=O)N[C@@H](CC(C)C)C(=O)N[C@@H](CC(C)C)C(=O)N[C@@H](CCCCNC(=O)CC[C@H](NC(=O)CC[C@H](NC(=O)COCCOCCNC(=O)CC[C@H](NC(=O)CC[C@H](NC(=O)CCCCCCCCCCCCCCCCC(=O)O)C(=O)O)C(=O)O)C(=O)O)C(=O)O)C(=O)NCC(=O)N[C@@H](CO)C(=O)NCC(=O)O [Example 36, N^ε34-[(4S)-4-carboxy-4-[[(4S)-4-carboxy-4-[[2-[2-[2-[[(4S)-4-carboxy-4-[[(4S)-4-carboxy-4-(17-carboxyheptadecanoylamino)butanoyl]amino]butanoyl]amino]ethoxy]ethoxy]acetyl]amino]butanoyl]amino]butanoyl]-[Imp7,Aib8,His9,Arg18,Arg23,Arg26,Leu33,Ser36]-GLP-1-(7-37)-peptide] (Desaminohistidyl-[Aib]HGTFTSDVSRYLEGRAAREFIAWLLK([γGlu-γGlu-AEEA-γGlu-γGlu-C18 diacid])GSG-OH) | 45.0 h
2 | CC[C@H](C)[C@H](NC(=O)[C@H](Cc1ccccc1)NC(=O)[C@H](CCC(=O)O)NC(=O)[C@H](CCCNC(=N)N)NC(=O)[C@H](C)NC(=O)[C@H](C)NC(=O)[C@H](CCCNC(=N)N)NC(=O)CNC(=O)[C@H](CCC(=O)O)NC(=O)[C@H](CC(C)C)NC(=O)[C@H](Cc1ccc(O)cc1)NC(=O)[C@H](CCCCN)NC(=O)[C@H](CO)NC(=O)[C@@H](NC(=O)[C@H](CC(=O)O)NC(=O)[C@H](CO)NC(=O)[C@@H](NC(=O)[C@H](Cc1ccccc1)NC(=O)[C@@H](NC(=O)CNC(=O)[C@H](Cc1c[nH]cn1)NC(=O)C1(NC(=O)CCc2c[nH]cn2)CCC1)[C@@H](C)O)[C@@H](C)O)C(C)C)C(=O)N[C@@H](C)C(=O)N[C@@H](Cc1c[nH]c2ccccc12)C(=O)N[C@@H](CC(C)C)C(=O)N[C@@H](CC(C)C)C(=O)N[C@@H](CCCCNC(=O)CNC(=O)[C@H](CO)NC(=O)[C@H](CCC(=O)O)NC(=O)CNC(=O)[C@H](CO)NC(=O)CC[C@H](NC(=O)CC[C@H](NC(=O)CCCCCCCCCCCCCCCCC(=O)O)C(=O)O)C(=O)O)C(=O)N[C@H](C(N)=O)[C@@H](C)O [Example 20, N^ε34-[2-[[(2S)-2-[[(2S)-4-carboxy-2-[[2-[[(2S)-2-[[(4S)-4-carboxy-4-[[(4S)-4-carboxy-4-(17-carboxyheptadecanoylamino)butanoyl]amino]butanoyl]amino]-3-hydroxypropanoyl]amino]acetyl]amino]butanoyl]amino]-3-hydroxypropanoyl]amino]acetyl]-[Imp7,Acb8,His9,Lys18,Arg23,Arg26,Leu33,Thr35]-GLP-1-(7-35)-peptide amide] (I: Desaminohistidyl-[Ac4c]HGTFTSDVSKYLEGRAAREFIAWLLKT-NH2 / II: {C18 diacid-γGlu-γGlu}-SGESG; amide I:27-II:C) | 45.0 h
3 | CC[C@H](C)[C@H](NC(=O)[C@H](Cc1ccccc1)NC(=O)[C@H](CCC(=O)O)NC(=O)[C@H](CCCNC(=N)N)NC(=O)[C@H](C)NC(=O)[C@H](C)NC(=O)[C@H](CCCNC(=N)N)NC(=O)CNC(=O)[C@H](CCC(=O)O)NC(=O)[C@H](CC(C)C)NC(=O)[C@H](Cc1ccc(O)cc1)NC(=O)[C@H](CCCNC(=N)N)NC(=O)[C@H](CO)NC(=O)[C@H](Cc1ccc(O)cc1)NC(=O)[C@H](CC(=O)O)NC(=O)[C@H](CO)NC(=O)[C@@H](NC(=O)[C@H](Cc1ccccc1)NC(=O)[C@@H](NC(=O)CNC(=O)[C@H](Cc1c[nH]cn1)NC(=O)C1(NC(=O)CCc2c[nH]cn2)CCC1)[C@@H](C)O)[C@@H](C)O)C(=O)N[C@@H](C)C(=O)N[C@@H](Cc1c[nH]c2ccccc12)C(=O)N[C@@H](CC(C)C)C(=O)N[C@@H](CC(C)C)C(=O)N[C@@H](CCCNC(=N)N)C(=O)N[C@@H](CCCCNC(=O)CC[C@H](NC(=O)COCCOCCNC(=O)CC[C@H](NC(=O)COCCOCCNC(=O)CC[C@H](NC(=O)COCCOCCNC(=O)CC[C@H](NC(=O)CC[C@H](NC(=O)CCCCCCCCCCCCCCCCC(=O)O)C(=O)O)C(=O)O)C(=O)O)C(=O)O)C(=O)O)C(N)=O [Example 28, N^ε35-[(4S)-4-carboxy-4-[[2-[2-[2-[[(4S)-4-carboxy-4-[[2-[2-[2-[[(4S)-4-carboxy-4-[[2-[2-[2-[[(4S)-4-carboxy-4-[[(4S)-4-carboxy-4-(17-carboxyheptadecanoylamino)butanoyl]amino]butanoyl]amino]ethoxy]ethoxy]acetyl]amino]butanoyl]amino]ethoxy]ethoxy]acetyl]amino]butanoyl]amino]ethoxy]ethoxy]acetyl]amino]butanoyl]-[Imp7,Acb8,His9,Tyr16,Arg18,Arg23,Arg26,Leu33,Arg34,Lys35]-GLP-1-(7-35)-peptide amide] (Desaminohistidyl-[Ac4c]HGTFTSDYSRYLEGRAAREFIAWLLRK([γGlu-AEEA-γGlu-AEEA-γGlu-AEEA-γGlu-γGlu-C18 diacid])-NH2) | 45.0 h
4 | CC[C@H](C)[C@H](NC(=O)[C@H](Cc1ccccc1)NC(=O)[C@H](CCC(=O)O)NC(=O)[C@H](CCCNC(=N)N)NC(=O)[C@H](C)NC(=O)[C@H](C)NC(=O)[C@H](CCC(N)=O)NC(=O)[C@H](CCC(=O)O)NC(=O)[C@H](CCC(=O)O)NC(=O)[C@H](CC(C)C)NC(=O)[C@H](Cc1ccc(O)cc1)NC(=O)[C@H](CCCCN)NC(=O)[C@H](CO)NC(=O)[C@H](Cc1ccc(O)cc1)NC(=O)[C@H](CC(=O)O)NC(=O)[C@H](CO)NC(=O)[C@@H](NC(=O)[C@H](Cc1ccccc1)NC(=O)[C@@H](NC(=O)CNC(=O)[C@H](Cc1c[nH]cn1)NC(=O)C(C)(C)NC(=O)CCc1c[nH]cn1)[C@@H](C)O)[C@@H](C)O)C(=O)N[C@@H](C)C(=O)N[C@@H](Cc1c[nH]c2ccccc12)C(=O)N[C@@H](CC(C)C)C(=O)N[C@@H](CC(C)C)C(=O)N[C@@H](CCCCN)C(=O)NCC(=O)N[C@@H](CCCCNC(=O)CNC(=O)[C@H](CO)NC(=O)[C@H](CCC(=O)O)NC(=O)CNC(=O)[C@H](CO)NC(=O)CC[C@H](NC(=O)CC[C@H](NC(=O)CCCCCCCCCCCCCCCCC(=O)O)C(=O)O)C(=O)O)C(=O)NCC(=O)O [Example 14, N^ε36-[2-[[(2S)-2-[[(2S)-4-carboxy-2-[[2-[[(2S)-2-[[(4S)-4-carboxy-4-[[(4S)-4-carboxy-4-(17-carboxyheptadecanoylamino)butanoyl]amino]butanoyl]amino]-3-hydroxypropanoyl]amino]acetyl]amino]butanoyl]amino]-3-hydroxypropanoyl]amino]acetyl]-[Imp7,Aib8,His9,Tyr16,Lys18,Glu22,Arg26,Leu33,Lys36]-GLP-1-(7-37)-peptide] (I: Desaminohistidyl-[Aib]HGTFTSDYSKYLEEQAAREFIAWLLKGKG-OH / II: {C18 diacid-γGlu-γGlu}-SGESG; amide I:29-II:C) | 2.7 h
